SMILES strings stand for the structures. Out of some 48,000 compounds screened, about 550 (1.1%) were called active. Another 4% or so got no clear call; they are omitted. No stated cut-off is given here; in the data, active means potency below about 15 µM; inconclusive means mostly about 16 µM to 33 µM; inactive means weaker than that. This is one part of the list. Bounds are passed on as bounds.
Potency means the concentration at half of the fitted maximal effect.

For this test, the target named is Lysosomal acid glucosylceramidase (Homo sapiens) (UniProt P04062). The test can be described thus: Glucocerebrosidase.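 Further: the screen sought inhibitors.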 Conditions: purified enzyme, resorufin glucoside fluorescence (screen aimed at inhibitors), 20 min. A digest of the protocol: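 Normal human glucocerebrosidase (0.2 nM final) was assayed with resorufin β-D-glucopyranoside (30 uM final) in 50mM citric acid/KH2PO4, 10mM sodium taurocholate, 0.01% tween-20, pH 5.9. Compounds were titrated; fluorescence (Ex 548, Em 600) read after 20 min at RT.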
Sequence of UniProt P04062 (P04062 whole entry, looked up): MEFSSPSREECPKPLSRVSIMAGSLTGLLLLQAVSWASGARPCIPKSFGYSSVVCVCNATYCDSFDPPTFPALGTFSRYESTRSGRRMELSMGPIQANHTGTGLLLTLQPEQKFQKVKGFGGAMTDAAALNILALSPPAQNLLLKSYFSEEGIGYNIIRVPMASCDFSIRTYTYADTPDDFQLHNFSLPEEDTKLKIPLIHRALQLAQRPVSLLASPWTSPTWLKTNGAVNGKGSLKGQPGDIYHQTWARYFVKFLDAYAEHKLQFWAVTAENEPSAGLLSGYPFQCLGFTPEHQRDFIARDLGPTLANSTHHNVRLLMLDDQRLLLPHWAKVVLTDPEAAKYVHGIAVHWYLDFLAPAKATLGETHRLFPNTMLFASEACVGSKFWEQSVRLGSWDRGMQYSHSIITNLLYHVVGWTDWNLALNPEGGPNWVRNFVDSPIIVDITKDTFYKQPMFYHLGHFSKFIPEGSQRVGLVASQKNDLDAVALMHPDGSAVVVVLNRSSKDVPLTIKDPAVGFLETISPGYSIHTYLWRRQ
For the molecule `CC(=O)Nc1ccc(N2CCN(Cc3ccccc3F)CC2)cc1`, the Potency is inactive: > 76.9 µM.

Regarding `CCSCCNC(=O)c1cc(-n2cnnc2)ccc1Cl`, the Potency was inactive: > 76.9 µM.

On to `CCOc1ccc(-n2cnnn2)cc1S(=O)(=O)NCCc1ccc(OC)c(OC)c1`, for which the Potency is inactive: > 76.9 µM.

With `CCCn1c(=S)[nH]c2cc(C(=O)N3CCCC(C(=O)OCC)C3)ccc2c1=O` (centres undefined), the Potency is inactive: > 76.9 µM.

Consider `Cc1cc(C)nc(SCc2nnc(SCC(=O)Nc3ccc(C)c(C)c3)o2)n1`, for which the Potency was inactive: > 76.9 µM.

With `CNC(=O)CSc1nnnn1-c1ccc(C)cc1C`, the Potency was inactive: > 76.9 µM.

As to `CN1CCN(C(=O)c2ccc(C3SCC(=O)N3Cc3ccco3)cc2)CC1` (centres undefined), the Potency is inactive: > 76.9 µM.

Consider `CCOC(=O)c1[nH]c(=O)[nH]c1CSc1ccccn1`, for which the Potency is inactive: > 76.9 µM.

Take `CC(C)NC(=O)Cn1nnc(-c2cccc(NC(=O)c3ccccc3F)c2)n1`: the Potency was inactive: > 76.9 µM.

As for `COCCNS(=O)(=O)c1ccc(-c2ccc(S(=O)(=O)NCCOC)cc2)cc1`, the Potency is inactive: > 76.9 µM.

As to `O=C(CSc1nnc2ccccn12)N1CCc2ccccc2C1`, the Potency was inactive: > 76.9 µM.

For the molecule `CCC1Oc2ccc(C)cc2N(Cc2cccc(C)c2)C1=O` (centres undefined), the Potency was inactive: > 76.9 µM.

With `C/C(Cl)=C\Cn1c(N2CCCC2)nc2c1c(=O)[nH]c(=O)n2C`, the Potency is inactive: > 76.9 µM.

Turning to `CCOC(=O)C1CCN(C(=O)c2cccc(Cl)c2)CC1`, the Potency is inactive: > 76.9 µM.

In the case of `COc1ccc(Cl)cc1S(=O)(=O)NCc1cccs1`, the Potency was inactive: > 76.9 µM.

For `Cc1ccc(C(C)C)c(OCC(=O)OCc2c(C)noc2C)c1`, the Potency was inactive: > 76.9 µM.

Turning to `CC1=Nn2c(nnc2-c2cc(-c3ccccc3)n[nH]2)SC1`, the Potency was inactive: > 76.9 µM.

As to `Cc1occc1-c1nnc(SCC(=O)N2CCOCC2)n1Cc1ccco1`, the Potency is inactive: > 76.9 µM.

On to `CC(=O)N1CCC2(CC1)CC(=O)c1cc(OCC(=O)NCc3ccc(C)cc3)ccc1O2`, for which the Potency was inactive: > 76.9 µM.

On to `CCOC(=O)C1CCCN(C(=O)c2cc(=O)c3ccccc3o2)C1` (centres undefined), for which the Potency is inactive: > 76.9 µM.

Take `O=C(CSc1nnnn1C1CCCCC1)N1CCCC1`: the Potency was inactive: > 76.9 µM.

Take `COc1ccc2c(c1)c1nnc(SCC(=O)N3CCCCC3C)nc1n2C` (centres undefined): the Potency is inactive: > 76.9 µM.

For the molecule `S=c1[nH]ncn1-c1ccccn1`, the Potency is inactive: > 76.9 µM.

Consider `Cn1c(SCC(=O)NCc2ccco2)nc2ccccc2c1=O`, for which the Potency was inactive: > 76.9 µM.

For the molecule `CC(=O)c1cccc(NC(=O)CN2C(=O)COc3ccc(Cl)cc32)c1`, the Potency is inactive: > 76.9 µM.

Regarding `CC(C)(C)C(=O)OCCn1c(=O)c2cc3c(=O)n(CCOC(=O)C(C)(C)C)c(=O)c3cc2c1=O`, the Potency was inactive: > 76.9 µM.

Regarding `COC(=O)CSc1nnc(CNC(=O)c2cccs2)n1-c1cc(OC)ccc1OC`, the Potency is inactive: > 76.9 µM.

Turning to `CCSCc1nnc(SCC(=O)Nc2cccc(SC)c2)n1C`, the Potency was inactive: > 76.9 µM.

Regarding `CCOC(=O)c1c(C)nc2ncccn12`, the Potency is inactive: > 76.9 µM.

Take `CCN1C(=O)C2C(c3ccccc3F)NC(Cc3ccc(O)cc3)(C(=O)OC)C2C1=O` (centres undefined): the Potency is inactive: > 76.9 µM.

As for `COc1ccc(S(=O)(=O)N2CCSC2c2ccccc2)cc1` (centres undefined), the Potency was inactive: > 76.9 µM.

In the case of `COc1cccc(OC(=O)CSc2nnc(-c3ccccc3Br)o2)c1`, the Potency was inactive: > 76.9 µM.

For `C=CCOC(=O)C1=C(C)NC(=O)NC1c1cn(-c2ccccc2)nc1-c1cccs1` (centres undefined), the Potency was inactive: > 76.9 µM.

Regarding `CCCN1CCN(C(=O)Cn2cccc2C(=O)c2ccccc2)CC1`, the Potency is inactive: > 76.9 µM.

Take `C=CCOC(=O)C(C#N)c1nc2ccccc2nc1N1CCN(Cc2ccc3c(c2)OCO3)CC1` (centres undefined): the Potency entry is “inactive”.

Regarding `Cc1cccc(-c2noc(CN(C(=O)CCc3ccccc3)C(C)C)n2)c1`, the Potency was inactive: > 76.9 µM.

Consider `COc1ccc2c(c1OC)C(=O)N1c3cccc(Cl)c3C(=O)OC21` (centres undefined), for which the Potency was inactive: > 76.9 µM.

For the molecule `Cc1cc(NC(=O)c2ccc(Cl)cc2)no1`, the Potency was inactive: > 76.9 µM.

Turning to `Cc1ccc(CNC(=O)CSc2n[nH]c(N)n2)cc1`, the Potency was inactive: > 76.9 µM.

`CCC(=O)Nc1cccc(-c2nc3ccccc3c(=O)o2)c1`: the Potency is inactive: > 76.9 µM.

For the molecule `O=C(CSc1c[nH]c2ccccc12)N1CCOCC1`, the Potency was inactive: > 76.9 µM.

For the molecule `Nc1ccc(C(=O)OCCCc2nc3ccccc3[nH]2)cc1`, the Potency was inactive: > 76.9 µM.

For `Cc1ccc(CNc2ccc(N3CCOCC3)cc2)s1`, the Potency was inactive: > 76.9 µM.

With `COc1ccc(C(=O)O)cc1S(=O)(=O)Nc1cccc(C)c1`, the Potency was inactive: > 76.9 µM.

Turning to `O=C1NCCc2c1[nH]c1c(Cl)ccc(Cl)c21`, the Potency was inactive: > 76.9 µM.

As for `O=C(CCC1CCCC1)Nc1ccc(Br)cn1`, the Potency was inactive: > 76.9 µM.

For `COc1cccc(C(=O)N2CCN(C3CCC(c4ccccc4)CC3)CC2)c1` (centres undefined), the Potency was inactive: > 76.9 µM.

With `C/C(=C1/SC(N2CCCC2)=NC1=O)c1ccc(Br)cc1`, the Potency was inactive: > 76.9 µM.

For `COCCn1c(SCC(=O)Nc2sc(C)c(C)c2C#N)nnc1C(C)C`, the Potency is inactive: > 76.9 µM.

Take `O=C(Nc1ccc2nccnc2c1)c1cnccn1`: the Potency was inactive: > 76.9 µM.

Regarding `C(=N\c1nccs1)/Nc1nccs1`, the Potency was inactive: > 76.9 µM.

Consider `Cc1ccc(-n2c(SCC(N)=O)nnc2-c2ccccn2)cc1`, for which the Potency was inactive: > 76.9 µM.

On to `CSc1nncn1/N=C/c1cc(Cl)ccc1F`, for which the Potency is inactive: > 76.9 µM.

For `CC(C)CCNC(=O)C1CCN(C(=O)N(C)C)CC1`, the Potency is inactive: > 76.9 µM.

For `COc1ccc(C(CCc2ccc(C)o2)NC(=O)Nc2ccc(OC)cc2OC)cc1` (centres undefined), the Potency is inactive: > 76.9 µM.

Consider `CC1(C)Cc2c(c(=S)nc(-c3ccccc3)n2CCOCCO)CO1`, for which the Potency is inactive: > 76.9 µM.

Consider `COc1ccc(-c2nnc(SCC(=O)OC3CCCCC3)o2)cc1OC`, for which the Potency is inactive: > 76.9 µM.

Turning to `Cc1ccc(C(=O)Nc2ccccc2C(=O)NC2CCCCC2)cc1S(=O)(=O)N1CCOCC1`, the Potency is inactive: > 76.9 µM.

On to `COc1cccc(N(C(=O)c2ccco2)C(C(=O)NC2CCCC2)c2ccc(N(C)C)cc2)c1` (centres undefined), for which the Potency was inactive: > 76.9 µM.
